Experimental data published in PubChem BioAssay (NCI).
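A five-concentration, 48-hour dose response in 96-well plates underlies each endpoint, interpolated linearly between surrounding concentrations. Here, GI50 denotes the concentration required for 50% inhibition of growth. TGI: concentration producing complete growth inhibition.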

Test system: NCI-H322M lung
Assay: NCI-60 cell line screen, 48 h

Point of comparison: CC(=C(C(=O)O)C(=O)O)c1cc(-c2cccs2)cc(-c2ccc(Cl)cc2)c1O, TGI 36.6 µM. Against it:
- O=C1OC2(c3ccc(O)cc3Oc3cc(O)ccc32)c2c1c(-c1ccccc1)c(-c1ccccc1)c(-c1ccccc1)c2-c1ccccc1 — 1.5-fold higher, 55.4 µM
- COC(=O)C1=CC2OC13CC1CCC3(C2=O)C1(C)C (configuration not stated) — within 1.5-fold, 33.6 µM
- COC(=O)/C=C(\S/C(=C(/c1ccc(OC)cc1)n1cc(C(=O)OC)c(C(=O)OC)n1)c1ccc(OC)cc1)C(=O)OC — higher, > 100 µM
- CC(C)(O)[C@H]1[C@@H]2OC(=O)[C@H]1[C@]1(O)C[C@H]3OC34C(=O)O[C@H]2[C@@]41C (some centres not stated) (tested in a mixture with another compound) — higher, > 100 µM
- COC(=O)C(=O)C(C(=O)C(=O)Nc1cc([N+](=O)[O-])ccc1[N+](=O)[O-])c1nc2ccc(C(=O)c3ccccc3)cc2[nH]c1=O (configuration not stated) — higher, > 100 µM
- Cc1cc2nc3c(C#N)c(-c4ccccc4)cc(Nc4ccc(F)cc4)n3c2cc1C — higher, > 100 µM
- O=C(Cn1ccnc1[N+](=O)[O-])NCC(F)(F)C(F)(F)F — higher, > 100 µM
- COC(=O)N/N=C(\C)C(CN1CCOCC1)C(c1ccccc1)c1cc2ccccc2oc1=O (configuration not stated) — higher, > 100 µM
- COC(=O)C1C(=O)O[C@@H](c2ccc(OC)cc2OC)C1C(=O)OC (some centres not stated) — higher, > 100 µM
- CN1CCC/C1=C1\C(=O)c2cccn2C1=O — higher, > 100 µM
- C/C(=C/CNc1ncnc2c1ncn2CCC#N)CO — higher, > 100 µM
- CCC[CH2][Sn]([CH2]CCC)([S]C1=NCCS1)[S]C1=NCCS1 — 14-fold lower, 2.6 µM
- Nc1nncs1 — higher, > 5000 µM
- O=C(O)CCSc1nnc(COc2ccc(Cl)cc2)n1-c1ccccc1 — higher, > 100 µM
- Cc1ccc(C(=O)NC2CCCCC2)cc1-c1ccc(C(=O)NCC2CC2)cc1 — not separable, > 25 µM
- CN(CCC(=O)O)S(=O)(=O)c1ccccc1 — higher, > 100 µM
- C/C(=C\COP(=O)(O)OP(=O)(O)O)CC/C=C(\C)CNc1ccc([N+](=O)[O-])cc1 — higher, > 100 µM
- COc1ccc(NC(C)=O)cc1N1C(=O)/C(=C\c2cc(OC)c(OC)c(OC)c2)S(=O)(=O)C1c1ccccc1 (configuration not stated) — higher, > 100 µM
- CCn1c(=O)c2c3ccc(O)cc3oc2c2ccc(O)cc21 — higher, > 100 µM
- O=C1/C(=C/C(Cl)=C/c2ccccc2)SC(=S)N1CCc1ccc(O)cc1 — 1.7-fold higher, 62.1 µM
- COC1/C=C\OC2(C)Oc3c(C)c(O)c4c(O)c(c(CN(C)C)c(O)c4c3C2=O)NC(=O)/C(C)=C\C=C/C(C)C(O)C(C)C(O)C(C)C(OC(C)=O)C1C (configuration not stated) — higher, > 100 µM
- CC(C)N(c1cc2c(cc1F)c(=O)c(C(=O)O)cn2-c1ccc(N2CCN(C)CC2)cn1)C(C)C — higher, > 100 µM
- Cc1cc(C)nc(SC2=C(Nc3cccc(Cl)c3)C(=O)N(Cc3ccccc3)C2=O)n1 — higher, > 170 µM
- Nc1nccc(Nc2ccc(S(N)(=O)=O)cc2)n1 — higher, > 100 µM
- O=c1[nH]n(Cc2ccccc2CCl)c2ccc([N+](=O)[O-])cc12 — higher, > 100 µM
- O=c1[nH]c(=O)n(C2CC(O)C(CO)O2)c2nc3ccc4ccccc4c3nc12 (configuration not stated) — higher, > 100 µM
- Cc1ccccc1NC(=O)/C(C#N)=N\Nc1nc[nH]c1C(N)=O — higher, > 100 µM
- CCn1c(SCC(=O)NNC(=S)Nc2ccc(F)cc2)nc2ccccc2c1=O — higher, > 100 µM
- COc1ccccc1NC(=O)C1=C(C)NC(C)=C(C(=O)Nc2ccccc2OC)C1c1ccccc1OC — higher, > 100 µM
- CNC(=S)NNC1=NCCCCN1 — higher, > 100 µM
- CO[C@H](c1ccccc1)[C@H](O)[C@](O)(c1ccccc1)P(=O)(OC)OC — higher, > 100 µM
- O=C(O)c1cccc(CC(Br)C(=O)O)c1 (configuration not stated) — higher, > 100 µM
- CC1(C)OC(=O)CC12CCN(Cc1ccccc1)CC2 — higher, > 100 µM
- CNC(=O)CN(CC(N)=O)C(=O)NC — higher, > 100 µM
- CC12CC3CC(C)(C1)CC(N=[N+]=[N-])(C3)C2 — higher, > 100 µM
- CCNc1nc(N2CC(=O)Nc3cc(OC)ccc32)c2ccccc2n1 — higher, > 100 µM
- O=Cc1ccc2c(c1)CC1(C2)Cc2ccc(C=O)cc2C1 — higher, > 100 µM
- Cc1ccc2sc3c(NCCCNCCO)nc4ccccc4c3c(=O)c2c1 — 12-fold lower, 3.03 µM
- CCN(CC)c1ccc2c(c1)N=C1N=CC=CN1C2(c1ccc(N(C)C)cc1)c1ccc(N(C)C)cc1 — 1.6-fold lower, 22.3 µM
- O=C(O)CNCc1c2ccccc2[n+]([O-])c2ccccc12 — higher, > 100 µM
- C#C[C@@]1(O)[C@@H](CO)O[C@@H](n2cc(F)c3c(N)ncnc32)[C@@H]1O — 8.2-fold lower, 4.48 µM
- O=C1c2ccccc2C(=O)c2nc(-c3ccccc3)c(-c3ccccc3)nc21 — higher, > 100 µM
- c1ccc2cc(Cn3c(-c4ccc5ccccc5c4)[n+](Cc4ccc5ccccc5c4)c4ccccc43)ccc2c1 — 15-fold lower, 2.43 µM
- CC(CCC(=O)O)[C@H]1CCC2[C@H]3C(CC(=O)[C@@]21C)[C@@]1(C)CCC(O)C[C@H]1C[C@@H]3O (some centres not stated) — higher, > 100 µM
- CCCCCCCCCCCCNC1(C)CNCCCNCCNCCCNC1 — 11-fold lower, 3.32 µM
- NC(=O)Oc1cc(OC(N)=O)cc(N(CCCl)CCCl)c1 — 1.8-fold higher, 65 µM
- CCCCCCCCCCCCCCCCOCCCOP(=O)(O)C1CCCN(O)C1=O (configuration not stated) — 2.4-fold lower, 15.3 µM
- Cc1c(CCl)c(=O)oc2c(C)c3occ(CCl)c(=O)c3cc12 — higher, > 100 µM
- CC/C(=C(\CC)c1ccc(OCCN(CC)CC)cc1)c1ccc(OCCN(CC)CC)cc1 — 1.9-fold lower, 19.3 µM

Point of comparison: c1ccc2cc(Cn3c(-c4ccc5ccccc5c4)[n+](Cc4ccc5ccccc5c4)c4ccccc43)ccc2c1, GI50 1.18 µM. Against it:
- O=C(Cn1ccnc1[N+](=O)[O-])NCC(F)(F)C(F)(F)F — higher, > 100 µM
- CCC[CH2][Sn]([CH2]CCC)([S]C1=NCCS1)[S]C1=NCCS1 — within 1.5-fold, 1.31 µM
- Cc1ccc(C(=O)NC2CCCCC2)cc1-c1ccc(C(=O)NCC2CC2)cc1 — higher, > 17.8 µM
- O=C1/C(=C/C(Cl)=C/c2ccccc2)SC(=S)N1CCc1ccc(O)cc1 — 3-fold higher, 3.55 µM
- Cc1cc(C)nc(SC2=C(Nc3cccc(Cl)c3)C(=O)N(Cc3ccccc3)C2=O)n1 — higher, > 170 µM
- CCNc1nc(N2CC(=O)Nc3cc(OC)ccc32)c2ccccc2n1 — 2200-fold lower, 0.000536 µM
- Cc1ccc2sc3c(NCCCNCCO)nc4ccccc4c3c(=O)c2c1 — within 1.5-fold, 1.65 µM
- C#C[C@@]1(O)[C@@H](CO)O[C@@H](n2cc(F)c3c(N)ncnc32)[C@@H]1O — 2.4-fold lower, 0.497 µM
- NC(=O)Oc1cc(OC(N)=O)cc(N(CCCl)CCCl)c1 — 18-fold higher, 21.4 µM
- CCCCCCCCCCCCCCCCOCCCOP(=O)(O)C1CCCN(O)C1=O (configuration not stated) — within 1.5-fold, 0.89 µM
- CC/C(=C(\CC)c1ccc(OCCN(CC)CC)cc1)c1ccc(OCCN(CC)CC)cc1 — 4.7-fold higher, 5.54 µM
